Sequences and labels used below:
T1: RBFOX1 RRM RbFoxmut (Fox-RRM*) (Homo sapiens, UniProt Q9NWB1 109-208, R118D;E147R;N151S;E152T)
T1 sequence: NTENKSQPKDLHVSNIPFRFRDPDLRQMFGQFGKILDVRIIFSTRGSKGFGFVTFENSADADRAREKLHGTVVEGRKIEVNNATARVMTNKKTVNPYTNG

B1: AACUACC (DNA:RNA)
RNA: GGGAGACCGGAAUUCAGAUUGUCCAACUACCUUAAAUCCCGUCGUAGCCACCA
DNA 1: CAATCTGAATTCCGGTCTCCC
DNA 2: TGGTGGCTACGACGGGATT
B2: UGAGUGG (DNA:RNA)
RNA: GGGAGACCGGAAUUCAGAUUGUCCUGAGUGGUUAAAUCCCGUCGUAGCCACCA
DNA 1: CAATCTGAATTCCGGTCTCCC
DNA 2: TGGTGGCTACGACGGGATT
B3: CAGUUAC (DNA:RNA)
RNA: B1 RNA with A25C, C27G, A29U, C30A
DNA 1: CAATCTGAATTCCGGTCTCCC
DNA 2: TGGTGGCTACGACGGGATT
B4: GGGGUAA (DNA:RNA)
RNA: B2 RNA with U25G, A27G, G30A, G31A
DNA 1: CAATCTGAATTCCGGTCTCCC
DNA 2: TGGTGGCTACGACGGGATT
B5: CGCCUGU (DNA:RNA)
RNA: B2 RNA with U25C, A27C, G28C, G31U
DNA 1: CAATCTGAATTCCGGTCTCCC
DNA 2: TGGTGGCTACGACGGGATT
B6: UUACUGA (DNA:RNA)
RNA: B2 RNA with G26U, G28C, G31A
DNA 1: CAATCTGAATTCCGGTCTCCC
DNA 2: TGGTGGCTACGACGGGATT
B7: GCGCCGA (DNA:RNA)
RNA: B2 RNA with U25G, G26C, A27G, G28C, U29C, G31A
DNA 1: CAATCTGAATTCCGGTCTCCC
DNA 2: TGGTGGCTACGACGGGATT
B8: CUACAGU (DNA:RNA)
RNA: B2 RNA with U25C, G26U, G28C, U29A, G31U
DNA 1: CAATCTGAATTCCGGTCTCCC
DNA 2: TGGTGGCTACGACGGGATT
B9: GUGGCCA (DNA:RNA)
RNA: B1 RNA with A25G, A26U, C27G, U28G, A29C, C31A
DNA 1: CAATCTGAATTCCGGTCTCCC
DNA 2: TGGTGGCTACGACGGGATT
B10: AGGUCCA (DNA:RNA)
RNA: B1 RNA with A26G, C27G, A29C, C31A
DNA 1: CAATCTGAATTCCGGTCTCCC
DNA 2: TGGTGGCTACGACGGGATT
B11: CCGUGGA (DNA:RNA)
RNA: B1 RNA with A25C, A26C, C27G, A29G, C30G, C31A
DNA 1: CAATCTGAATTCCGGTCTCCC
DNA 2: TGGTGGCTACGACGGGATT
B12: GCGAUGG (DNA:RNA)
RNA: B2 RNA with U25G, G26C, A27G, G28A
DNA 1: CAATCTGAATTCCGGTCTCCC
DNA 2: TGGTGGCTACGACGGGATT
B13: AGAAGCG (DNA:RNA)
RNA: B2 RNA with U25A, G28A, U29G, G30C
DNA 1: CAATCTGAATTCCGGTCTCCC
DNA 2: TGGTGGCTACGACGGGATT
B14: CUGACCA (DNA:RNA)
RNA: B1 RNA with A25C, A26U, C27G, U28A, A29C, C31A
DNA 1: CAATCTGAATTCCGGTCTCCC
DNA 2: TGGTGGCTACGACGGGATT
B15: UCUAACC (DNA:RNA)
RNA: B1 RNA with A25U, A26C, C27U, U28A
DNA 1: CAATCTGAATTCCGGTCTCCC
DNA 2: TGGTGGCTACGACGGGATT
B16: GCGCGUC (DNA:RNA)
RNA: B1 RNA with A25G, A26C, C27G, U28C, A29G, C30U
DNA 1: CAATCTGAATTCCGGTCTCCC
DNA 2: TGGTGGCTACGACGGGATT
B17: UCCAAAA (DNA:RNA)
RNA: B1 RNA with A25U, A26C, U28A, C30A, C31A
DNA 1: CAATCTGAATTCCGGTCTCCC
DNA 2: TGGTGGCTACGACGGGATT
B18: CAGUUGC (DNA:RNA)
RNA: B1 RNA with A25C, C27G, A29U, C30G
DNA 1: CAATCTGAATTCCGGTCTCCC
DNA 2: TGGTGGCTACGACGGGATT
B19: AGCCUAG (DNA:RNA)
RNA: B2 RNA with U25A, A27C, G28C, G30A
DNA 1: CAATCTGAATTCCGGTCTCCC
DNA 2: TGGTGGCTACGACGGGATT
B20: UGGUUUG (DNA:RNA)
RNA: B2 RNA with A27G, G28U, G30U
DNA 1: CAATCTGAATTCCGGTCTCCC
DNA 2: TGGTGGCTACGACGGGATT

Substitutions are numbered along the chain they refer to; changes in the protein carry UniProt numbers. Some of the results follow.

In this experiment the target is T1, RBFOX1 RRM RbFoxmut (Fox-RRM*). The experiment is described as follows: EMSA; HiTS-Eq, 1 nM pool, 10 min; buffer printed only for the single-RNA assays: 10 mM Tris pH 7.5, 150 mM NaCl, 3.4 mM EDTA, 0.001% NP-40, 30 C. As to conditions: tags: His6 N-terminal (pET28a); label: 5' 32P. The method, boiled down: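 Purified wild-type or mutant RbFox RRM at increasing concentrations was equilibrated with 1 nM of 5′-radiolabelled RNA carrying 7 randomized nucleotides for 10 min in 50 µL. Unbound RNA was separated by 8% native PAGE and sequenced. Relative association constants came from read-count changes of each RNA species compared with the control reaction, normalised to the cognate motif.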
A general note: In EMSA bound probe runs differently from free probe, usually more slowly.
As for B1, the binding signal was 0.0444 KA relative to UGCAUGU. Regarding B2, the binding signal was 0.0803 KA relative to UGCAUGU.

As for B3, the binding signal is 0.111 KA relative to UGCAUGU. For B4, the binding signal is 0.107 KA relative to UGCAUGU. In the case of B5, the binding signal was 0.207 KA relative to UGCAUGU. Consider B6, for which the binding signal is 0.0988 KA relative to UGCAUGU. For the molecule B7, the binding signal was 0.109 KA relative to UGCAUGU. B8: the binding signal is 0.0456 KA relative to UGCAUGU.

In the case of B9, the binding signal was 0.116 KA relative to UGCAUGU. As to B10, the binding signal was 0.0856 KA relative to UGCAUGU. As for B11, the figure is 0.0778 KA relative to UGCAUGU; as for B12, 0.105 KA relative to UGCAUGU; as for B13, 0.107 KA relative to UGCAUGU. With B14, the binding signal was 0.0814 KA relative to UGCAUGU. Consider B15, for which the binding signal is 0.0782 KA relative to UGCAUGU.

On to B16, for which the binding signal was 0.113 KA relative to UGCAUGU. Consider B17, for which the binding signal was 0.0691 KA relative to UGCAUGU. Take B18: the binding signal was 0.106 KA relative to UGCAUGU. For B19, the binding signal is 0.0894 KA relative to UGCAUGU. B20: the binding signal is 0.874 KA relative to UGCAUGU.

Values taken from article PMC9911399, “Two distinct binding modes provide the RNA-binding protein RbFox with extraordinary sequence specificity”.
